Measured values from PMC4336329 (PLoS ONE, 2015).
Among all 310,000 compounds or so, about 14,000 (4.5%) showed an effect of 50% or more. The effect is printed as a negative number. The list shows a part of the results.

Each molecule was assayed against human ether-à-go-go-related gene (hERG) potassium channel (human, UniProt Q12809) (assay: primary screen, population patch clamp on CHO cells stably expressing hERG).
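Also: peak tail current of the secondary pulse compared with the same well before compound.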

Sequence of human ether-à-go-go-related gene (hERG) potassium channel (Q12809 whole entry, looked up): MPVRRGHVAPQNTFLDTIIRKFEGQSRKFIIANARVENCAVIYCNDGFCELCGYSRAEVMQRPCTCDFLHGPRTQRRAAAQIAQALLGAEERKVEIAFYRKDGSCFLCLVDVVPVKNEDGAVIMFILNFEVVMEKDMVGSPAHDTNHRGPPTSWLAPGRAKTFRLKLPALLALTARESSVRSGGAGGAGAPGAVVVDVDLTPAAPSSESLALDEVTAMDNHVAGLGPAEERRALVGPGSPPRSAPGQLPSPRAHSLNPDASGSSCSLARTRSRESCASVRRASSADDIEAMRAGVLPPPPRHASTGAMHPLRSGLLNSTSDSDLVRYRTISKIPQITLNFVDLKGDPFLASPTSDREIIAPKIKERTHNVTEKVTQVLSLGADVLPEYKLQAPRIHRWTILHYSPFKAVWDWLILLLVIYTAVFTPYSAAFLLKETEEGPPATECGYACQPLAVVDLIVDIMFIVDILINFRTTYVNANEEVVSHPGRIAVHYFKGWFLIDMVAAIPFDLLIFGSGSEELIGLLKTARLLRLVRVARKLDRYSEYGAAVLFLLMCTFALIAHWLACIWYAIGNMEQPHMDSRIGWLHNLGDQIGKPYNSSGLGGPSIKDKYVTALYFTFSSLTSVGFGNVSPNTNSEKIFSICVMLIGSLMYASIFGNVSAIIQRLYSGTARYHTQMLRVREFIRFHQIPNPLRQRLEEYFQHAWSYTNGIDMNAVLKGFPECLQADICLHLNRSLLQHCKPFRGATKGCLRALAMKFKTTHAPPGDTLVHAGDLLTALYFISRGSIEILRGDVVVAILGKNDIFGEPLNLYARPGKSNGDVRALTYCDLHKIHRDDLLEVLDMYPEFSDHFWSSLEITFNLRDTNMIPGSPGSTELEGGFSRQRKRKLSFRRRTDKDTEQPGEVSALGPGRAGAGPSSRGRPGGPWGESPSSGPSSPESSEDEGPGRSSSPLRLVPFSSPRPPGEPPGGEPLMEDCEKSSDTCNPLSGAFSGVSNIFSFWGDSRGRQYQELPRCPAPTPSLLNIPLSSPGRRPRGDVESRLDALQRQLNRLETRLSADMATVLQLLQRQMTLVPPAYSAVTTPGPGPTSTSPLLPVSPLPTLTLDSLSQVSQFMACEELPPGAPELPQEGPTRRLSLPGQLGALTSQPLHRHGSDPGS

First: CCN(CC)c1ccc(NC(=O)COC(=O)/C=C/c2nc3ccccc3s2)cc1
Second: CCOc1ncccc1C(=O)N(CC)CC(=O)Nc1ccc(NC(C)=O)cc1
The “hERG current change (%, negative = inhibition) at 10uM” value of the first is higher: 16.3% for the first, 0.782% for the second.

Going from `CC(=O)NS(=O)(=O)c1ccc(N=c2ssc3c2-c2cc(C)ccc2NC3(C)C)cc1` to `Cc1ccc2c(C)nc(N/C(N)=N/S(=O)(=O)c3ccc([N+](=O)[O-])cc3)nc2c1`, the “hERG current change (%, negative = inhibition) at 10uM” value falls from -3.4% to -13.1%.

Going from `CCOC(=O)c1csc(NC(=O)CN2CCCCC2)n1` to `Cc1sc2c(=O)n3c(nc2c1C(=O)NCCCN1CCOCC1)CCCCC3`, the “hERG current change (%, negative = inhibition) at 10uM” value falls from 24.7% to -17.9%.

Compared with `CC(=O)O.CC1(C)CC(=O)C2=C(C1)NC1=C(C(=O)c3ccccc31)C2c1cc([N+](=O)[O-])ccc1O` (stereo not shown), `CCCc1ccc(/C=C2\C(=O)c3ccccc3C(O)=C2C(=O)OCC)cc1` is higher in “hERG current change (%, negative = inhibition) at 10uM” value: -37.1% for the first, -0.732% for the second.

Compared with `CN(C)CCCOc1cccc(Oc2ccccc2)c1.O=C(O)C(=O)O`, `CCOc1ccc2cc(C(=O)NCc3ccccc3)c(=N)oc2c1` is higher in “hERG current change (%, negative = inhibition) at 10uM” value: -34.5% for the first, 13.8% for the second.

First: CCCn1c(SCC(=O)c2cc(OC)ccc2OC)nnc1C(C)C
Second: CCCCn1c(SCC(=O)Nc2cc(C)on2)nnc1-c1ccco1
The “hERG current change (%, negative = inhibition) at 10uM” value of the first is higher: 4.09% for the first, -23.3% for the second.

Going from `CC12CC(c3ccccc3O1)N(C(=O)c1ccc(Br)o1)C(=O)N2c1ccccc1` (stereo not shown) to `N/C(=N\NC(=O)c1ccccc1)c1cc2ccccc2oc1=O`, the “hERG current change (%, negative = inhibition) at 10uM” value falls from 24.5% to 23.7%.

First: Cc1cc(NC(=O)COC(=O)c2ccccc2[N+](=O)[O-])no1
Second: CCOC(=O)c1sc(-c2ccccc2)cc1NC(=O)CSc1nnnn1C
The “hERG current change (%, negative = inhibition) at 10uM” value of the first is higher: 5.86% for the first, -1.13% for the second.

First: COc1ccc(NC(=O)CSc2nc(N)c(C#N)cc2C#N)cc1
Second: COc1ccc(C/C(C)=N/NC(=O)c2ccncc2)cc1
The “hERG current change (%, negative = inhibition) at 10uM” value of the first is lower: -14.2% for the first, -7.41% for the second.

Going from `Cn1cc(/C=C(\C#N)C(=O)Nc2ccccc2O)c2ccccc21` to `Cc1ccccc1CSCC(=O)Nc1ccccc1F`, the “hERG current change (%, negative = inhibition) at 10uM” value rises from 16.8% to 18.3%.

First: COc1cccc(NC(=O)CN(c2cccc(F)c2)S(C)(=O)=O)c1
Second: CCOc1ccc(N2C(=O)CC(SC(=NC)Nc3cccc(OC)c3)C2=O)cc1 (stereo not shown)
The “hERG current change (%, negative = inhibition) at 10uM” value of the first is lower: 1.62% for the first, 19.5% for the second.

Going from `Cc1ccccc1-n1c(O)c(/C=N/c2nccs2)c(=O)[nH]c1=O` [22412411] to `CCC(Cc1ccccc1)NC(=O)Cn1ncc2ccsc2c1=O` (stereo not shown), the “hERG current change (%, negative = inhibition) at 10uM” value falls from 4.23% to 2.8%.

First: [O-]/[N+](=C\c1ccco1)c1ccc(Cl)cc1
Second: O=C(O)CNC(=O)/C(=C/c1cccc([N+](=O)[O-])c1)NC(=O)c1ccco1
The “hERG current change (%, negative = inhibition) at 10uM” value of the first is higher: 24.1% for the first, -1.47% for the second.

First: CCC(C)(C)NC(=O)/C=C/c1cccs1
Second: Cc1sc(NC(=O)c2cccs2)c(C(N)=O)c1C
The “hERG current change (%, negative = inhibition) at 10uM” value of the first is lower: -10.9% for the first, 4.5% for the second.

Compared with `O=C(Cc1ccc(S(=O)(=O)N2CCOCC2)s1)Nc1ccc(S(=O)(=O)N2CCCCC2)cc1`, `Cc1ccc(S(=O)(=O)N2CCC(C(=O)OCCOc3cccc(C)c3)CC2)cc1` is lower in “hERG current change (%, negative = inhibition) at 10uM” value: 21.2% for the first, -1.76% for the second.

Compared with `CCOC(=O)c1c(C)[nH]c(C)c1C(=O)COC(=O)/C=C/c1ccc(Cl)cc1`, `O=C(OCC(=O)N1CCN(c2ccccc2)CC1)c1ccc(Cl)nc1` is lower in “hERG current change (%, negative = inhibition) at 10uM” value: 3.18% for the first, 1.69% for the second.

First: COc1ccc2cc1Oc1ccc(cc1)C[C@H]1c3cc(c(OC)cc3CCN1C)Oc1c(OC)c(OC)cc3c1[C@@H](C2)N(C)CC3
Second: CNC(=S)N1CCc2cc(OC)c(OC)cc2C1COc1ccc(F)cc1 (stereo not shown)
The “hERG current change (%, negative = inhibition) at 10uM” value of the first is lower: -57.4% for the first, -22.6% for the second.

First: CC(NC(=O)c1cccc(S(=O)(=O)N(C)C)c1)C1CC2CCC1C2 (stereo not shown)
Second: CC(=O)N1CC(C)Sc2ccc(S(=O)(=O)NC3CCCCC3C)cc21 (stereo not shown)
The “hERG current change (%, negative = inhibition) at 10uM” value of the first is higher: 20% for the first, -18.9% for the second.

First: CNc1nnc(-c2cc3ccccc3oc2=O)s1
Second: CCOc1ccccc1Nc1nnc(SCC(=O)NC(=O)c2cccn2C)s1
The “hERG current change (%, negative = inhibition) at 10uM” value of the first is higher: 9.69% for the first, 3.59% for the second.

First: Cc1ccc(S(=O)(=O)NCCC(=O)N2CCN(Cc3ccccc3)CC2)cc1
Second: O=C(O)C(=O)O.O=C(c1ccco1)N1CCN(CC(=O)N2c3ccccc3CCc3ccccc32)CC1
The “hERG current change (%, negative = inhibition) at 10uM” value of the first is higher: 11% for the first, -4.72% for the second.

Going from `CCOc1cc(C2NN=C(c3ccccc3)S2)ccc1OCc1ccc(F)cc1` (stereo not shown) to `CCOc1ncccc1C(=O)OCc1ccc(C#N)cc1`, the “hERG current change (%, negative = inhibition) at 10uM” value falls from 14.2% to -25.8%.

Going from `NC(=O)c1ccc(N2CCCCCC2)c([N+](=O)[O-])c1` to `O=C(NCCCN1CCCCC1)c1ccc2c(c1)NC(=O)c1ccccc1S2`, the “hERG current change (%, negative = inhibition) at 10uM” value falls from 3.08% to -13.7%.

Going from `CC(C)Oc1ccccc1-c1nc(SCC(=O)O)n[nH]1` to `CC(C)NC(=O)CN1C(=O)NC(CCc2ccccc2)C1=O` (stereo not shown), the “hERG current change (%, negative = inhibition) at 10uM” value falls from 10.3% to 5.75%.

First: Cc1cccnc1N(C(=O)Nc1cccc(Cl)c1)C1=NCC(C)(C)S1
Second: COc1ccc(CN2CCC(Oc3ccc(C(=O)NCc4ccccn4)cc3)CC2)c(F)c1
The “hERG current change (%, negative = inhibition) at 10uM” value of the first is higher: 8.13% for the first, -12.6% for the second.

Compared with `O=C1C2C(c3cccc(/C=C/c4ccccc4)c3)CC=CC2C(c2ccc3ccccc3c2)N1Cc1ccccc1` (stereo not shown), `COc1ccc(C2=C(Nc3ccccc3)c3ccccc3C2=O)cc1` is lower in “hERG current change (%, negative = inhibition) at 10uM” value: 12.1% for the first, -2.19% for the second.

Going from `CC(C)COc1ccc(N)cc1OCC(C)C.Cl` to `CCCCNC(=O)N1CCCC(N(C)CCc2ccc(OC)c(OC)c2)C1` (stereo not shown), the “hERG current change (%, negative = inhibition) at 10uM” value falls from 6.16% to -67.8%.

Compared with `O=C(c1cccc(C(=O)N(c2ccccn2)C2CCCCC2)c1)N(c1ccccn1)C1CCCCC1`, `O=C(COc1cccc(NC(=O)c2cccc([N+](=O)[O-])c2)c1)c1ccc(F)cc1` is lower in “hERG current change (%, negative = inhibition) at 10uM” value: 3.47% for the first, -47.8% for the second.

Going from `CCCCOc1ccc(C2=CSC3=NCCN23)cc1[N+](=O)[O-]` to `COc1ccc(C2=CSC3=NNC4(CCCCC4)NN23)cc1`, the “hERG current change (%, negative = inhibition) at 10uM” value rises from -71% to 0.832%.

Going from `CCN1CCCC1CNC(=O)C1CCN(C(=O)c2cc3sccc3n2Cc2ccc(F)cc2)CC1` (stereo not shown) to `CC(=O)n1cc([C@@H]2C=C(C(=O)N3CCOCC3)O[C@H](OCc3ccc(CO)cc3)C2)c2ccccc21`, the “hERG current change (%, negative = inhibition) at 10uM” value falls from -25.9% to -74.8%.

Compared with `CC1(C)OC2CCN3C(C(O)COS3(=O)=O)C2O1` (stereo not shown), `O=C(NC1CCOCC1)C1CCC(=O)N(CCc2ccc(Cl)cc2)C1` (stereo not shown) is lower in “hERG current change (%, negative = inhibition) at 10uM” value: 11% for the first, -0.418% for the second.

Going from `CCNC(=O)NC(=O)COC(=O)CNC(=O)COc1ccccc1` to `O=C(NC(CSSCC(NC(=O)c1ccccc1)C(=O)O)C(=O)O)c1ccccc1` (stereo not shown), the “hERG current change (%, negative = inhibition) at 10uM” value falls from 19.4% to 2.12%.

First: COc1ccc(C(=O)Nc2ccc(OCC(=O)N3CCOCC3)cc2)c(OC)c1OC
Second: CCOc1cccc(C(=O)NC(=S)Nc2ccc(N3CCCC3)cc2)c1
The “hERG current change (%, negative = inhibition) at 10uM” value of the first is lower: 2.17% for the first, 10.8% for the second.

Going from `CCC(C)NC(=O)C1CCC(CNS(=O)(=O)c2ccc3c(c2)CC(C)N3C(=O)C2CC2)CC1` (stereo not shown) to `CCN1CCN(C(=O)Nc2cc(Cl)ccc2OC)CC1`, the “hERG current change (%, negative = inhibition) at 10uM” value rises from -9.31% to 2.98%.

Going from `O=C(O)Cc1csc(NC(=O)c2ccco2)n1` to `O=C(O)c1cc(S(=O)(=O)NCc2ccco2)c(Cl)cc1Cl`, the “hERG current change (%, negative = inhibition) at 10uM” value rises from 13.9% to 14.9%.

Going from `COc1ccccc1-c1nc(C#N)c(NCCCn2ccnc2)o1` to `C=CCn1c(CCCNC(=O)c2ccccc2OC)nc2ccccc21`, the “hERG current change (%, negative = inhibition) at 10uM” value falls from -7.62% to -26.8%.

Going from `S=C1NCN(CCc2ccccc2)CN1` to `Cn1ncc(S(=O)(=O)Cc2ccccc2)c(Cl)c1=O`, the “hERG current change (%, negative = inhibition) at 10uM” value rises from 4.85% to 6.84%.

Going from `CN1CCN(/C(=N\O)c2nonc2N)CC1` to `COc1cccc(CNCCNC(=O)c2nonc2N)c1.Cl`, the “hERG current change (%, negative = inhibition) at 10uM” value rises from -1.19% to 9.27%.

Going from `CC(C)OC(=O)c1c(F)c(F)c(N2CCOCC2)c(F)c1F` to `Cc1nc(NCCN2CCOCC2)c2nnn(Cc3ccccc3Cl)c2n1`, the “hERG current change (%, negative = inhibition) at 10uM” value rises from -20.9% to -17.9%.

First: O=C1c2ccccc2C(=O)N1CN(C(=O)c1ccccc1[N+](=O)[O-])c1ccc(F)cc1
Second: Cc1ccc(-c2c[n+](CC(=O)N3c4ccccc4Sc4ccccc43)c3n2CCC3)cc1.[Cl-]
The “hERG current change (%, negative = inhibition) at 10uM” value of the first is higher: -9.74% for the first, -49.1% for the second.

Going from `O=c1[nH]c(=S)n(CCC2=CCCCC2)c(O)c1C=NCCCn1ccnc1` to `CSCC(O)Cn1[nH]c(=O)c2cc(Cl)c(Cl)cc2c1=O` (stereo not shown), the “hERG current change (%, negative = inhibition) at 10uM” value rises from -69.3% to 18.6%.

First: CCN1C(=O)N(c2ccc(C(C)=O)cc2)S(=O)(=O)c2ccccc21
Second: Cc1oc(-c2ccccc2Cl)nc1Cn1cccc1C1=NC(c2ccccc2)CO1 (stereo not shown)
The “hERG current change (%, negative = inhibition) at 10uM” value of the first is lower: -0.163% for the first, 8% for the second.

Going from `O=C(Nc1ccccc1F)C1CCCC1` to `Cn1cc(Cl)c(C(=O)NC2CCCCCC2)n1`, the “hERG current change (%, negative = inhibition) at 10uM” value falls from 13.6% to 1.36%.

First: Cc1cc(Oc2ccc(=O)n(C)n2)nc(Oc2ccc(=O)[nH]n2)n1
Second: O=C1CSCN1c1ccc(Cl)c(Cl)c1
The “hERG current change (%, negative = inhibition) at 10uM” value of the first is higher: 11.7% for the first, -3.38% for the second.

Going from `CN(C)/C=C/C(=O)c1ccc(C(F)(F)F)cc1F` to `Cc1cc(Cl)c(S(=O)(=O)N2CCSCC2)cc1OCC(N)=O`, the “hERG current change (%, negative = inhibition) at 10uM” value falls from 15.3% to -15.7%.
